From PubChem BioAssay AID493208 (National Center for Advancing Translational Sciences (NCATS), 2011)
Screen size: about 44,000 compounds; about 340 (0.77%) were called active. Roughly 5% stayed inconclusive and do not appear here. Calls come from the whole dose curve; as a rule, active = well fitted inhibition curve with a large enough effect; inconclusive = small, poorly fitted or top-dose-only effect; inactive = flat fitted curve, though single readings scatter. Some of the results follow.

assay: Acumen qHTS Assay for Inhibitors of the mTORC1 Signaling Pathway in MEF (Tsc2-/-, p53-/-) Cells: Sytravon; conditions: phospho-rpS6 immunofluorescence/PI, 24 h; series mostly up to 38.3 µM; activity change, negative = inhibition: at the top concentration; note: nearly all actives have a fitted effect of over 50% in size
Excerpt: NIH Molecular Libraries Probe Production Centers Network [MLPCN] NIH Chemical Genomics Center [NCGC] MLPCN Grant: NS059428-01 Assay Submitter (PI): Blenis, John; Hoffman, Greg; Harvard University NCGC Assay Overview: The mammalian target of rapamycin (mTOR) is an intracellular serine/threonine kinase Aberrant regulation of mTOR signaling plays a causative role in a number of human diseases, including cancer, benign tumors such as lymphangioleiomyomatosis (LAM) and Tuberous Sclerosis Complex (TSC), and metabolic diseases such as diabetes and obesity. This project aims to identify inhibitors of ribosomal protein S6 (rpS6) phosphorylation. The phosphorylation of rpS6 is a key event downstream of mTOR activation. The assay uses a phospho-specific antibody of phospho-rpS6 to detect inhibitors of mTOR activation. Mutations in the Tsc1 and Tsc2 genes are the underlying genetic lesions responsible for TSC, causing constitutive activation of the mTORC1 pathway and leading to profound effects on cell metabolism. Aberrant metabolism in cancer has recently received significant attention as a target to develop therapeutic agents in the treatment of cancer.1 As Tsc2-/- cells have lost the ability to respond to energy and growth factor deprivation, these cells are unable to properly down regulate cellular biosynthetic processes in response to metabolic stress, and are thus extremely sensitive to glucose deprivation-induced death.2 A central goal of this project is to explore the unique cell survival and metabolic properties of cells with Tsc1 or Tsc2 by screening for compounds that selectively target the Tsc2-/- MEFs by screening both Tsc2-/- and WT MEF cell lines. We hope to better understand these aspects of TSC physiology in order to exploit them for therapeutic benefit.
NCGC Acumen Assay Protocol Summary: For quantitative high throughput analysis of mTORC1 signaling, we developed a cell-based assay for immuno-fluorescence based detection of rpS6 phosphorylation on the Acumen Explorer that will be used a platform for the primary small molecule screen. Mouse embryonic fibroblasts (MEFs) are cultured in 1536-well plates using DMEM + 10% FBS. Twenty-four hrs after plating, test compounds (solubilized in DMSO) are delivered and incubated with the cells for 24 hrs at 37 degree Celsius. Following the incubation, media with compound is aspirated and the cells are fixed in 4% paraformaldehyde (PFA) containing PBS + 0.2% TX-100. Next, PFA is aspirated, cells are washed two times with PBS plus 0.2% TX-100 and the cells are blocked for 1 hr at room temperature (blocking buffer: LiCOR Blocking Buffer plus 0.2% TX-100). […] Cells are washed two times with PBS plus 0.2% TX-100, and stained with 10 uM propidium iodide (PI) for 20-25 minutes for cell number measurement (1:500 dilution of Hoescht staining is also added for IN Cell imaging). The plates are scanned on the Acumen Explorer laser scanning instrument (TTP Labtech) using the 488nm laser for simultaneous excitation of the Alexa-488 and PI. […] The normalized phospho-S6 staining is calculated as the ratio of the integrated Alexa 488 intensity divided by the integrated PI intensity for the single concentration rapamycin control (7.5 nM) and DMSO columns. […] Inhibition of the pathway is defined based on the normalized phospho-S6 intensity in rapamycin treated cells. Active cells are defined as those with a normalized phospho-S6 staining above this threshold, and each treatment is reported as the % positive cells in the well, where thresholds are defined by selecting wells with the highest and lowest signal and differentiating between the % non-active and % active populations. In addition to the pathway specific phospho-S6 endpoint, the number of PI stained cells from the Acumen is recorded as a measure of cell viability. The primary screen was performed with a MEF cell line in a defined genetic background, Tsc2-/-, p53-/- cell line stably transfected with an empty vector control (Tsc2-/- MEF).
Potency is the fitted concentration of half-maximal effect.

Compound	activity change, negative = inhibition	Potency
O=C(CSc1n[nH]c(-c2ccccc2)n1)NCCc1ccccc1	inactive: -10.9%	–
COc1cc(-c2nc3cnccn3c2Nc2ccc(C(C)C)cc2)ccc1O	–	active: 14.7 µM
COc1cccc(CNC(=O)CCS(=O)(=O)c2cc3c4c(c2)CCN4C(=O)CC3)c1	inactive: 5.67%	–
CCOC(=O)c1cc2c(=O)n3ccccc3nc2n(CC2CCCO2)c1=NC(=O)c1ccccc1F (stereo not given)	inactive: -0.839%	–
COc1ccc(CNC(=O)C(C)n2nc(C)c3sc4ccccc4c3c2=O)cc1OC (stereo not given)	inactive: -2.22%	–
Cc1ccccc1NC(=O)CSc1nnc(-c2cccc(Cl)c2)o1	inactive: -3.78%	–
COc1ccccc1-c1ccnc2c(-c3ccc(Br)cc3)c(C)nn12	inactive: -0.929%	–
CCc1ccc(Cn2c(CNS(=O)(=O)c3ccc(Cl)s3)nc3cccnc32)cc1	inactive: -19.7%	–
Cc1csc2nc(-c3cccc(NC(=O)c4ccccc4F)c3)cn12	inactive: 0.579%	–
CC(C)(C)c1ccc(S(=O)(=O)N2CCN(C(=O)c3cc(-c4ccc(Br)cc4)n[nH]3)CC2)cc1	inactive: 0.204%	–
O=C(CSc1nc(O)c(C/C=C/c2ccccc2)c(=O)[nH]1)Nc1cccc(F)c1	inactive: -3.03%	–
CCOc1ccc(NC(=O)c2noc3c2CSc2ccccc2-3)cc1	inactive: -1.53%	–
O=C(NCc1ccc(Cl)cc1)C1CCN(S(=O)(=O)c2ccc3c(c2)CCCN3C(=O)C2CCC2)CC1	inactive: -3.25%	–
COc1cc(-c2noc(-c3ccc(N4CCCCC4)c([N+](=O)[O-])c3)n2)cc(OC)c1OC	inactive: -1.28%	–
CCOCCc1nn2c(=O)cc(COC(=O)c3ccco3)nc2s1	inactive: 1.77%	–
O=C(Nc1ccc2oc(-c3cc(Br)ccc3Cl)nc2c1)c1ccc2ccccc2c1	inactive: -13.6%	–
COc1cccc(CNC(=O)c2nnc(Cc3ccc(Cl)cc3)o2)c1	inactive: -14.1%	–
O=C(CSc1ccc(-c2cccs2)nn1)Nc1cccc(F)c1	inactive: -15.4%	–
CCN1CCN(CCCNC(=O)c2ccc3c(c2)sc2nc(-c4ccc(C)cc4)cn23)CC1	inactive: 8.96%	–
COc1ccc(-c2cc(C)no2)cc1S(=O)(=O)N1CC(C)Oc2ccccc21 (stereo not given)	inactive: 0%	–
COc1ccccc1N1CCN(c2ncnc3onc(C)c23)CC1	inactive: -3.73%	–
CCCn1c(=O)c2sccc2n2c(CCCC(=O)Nc3ccccc3F)nnc12	inactive: 2.61%	–
CN(C(=O)c1oc(=O)c2ccccc2c1-c1ccccc1)c1cccc(Cl)c1	inactive: -12.8%	–
COc1ccc(-n2c(SCC(=O)NCc3ccccc3)nc3n[nH]c(C)c3c2=N)cc1	inactive: -7.43%	–

Compound	activity change, negative = inhibition	Potency
COc1cccc(N2CCN(C(=O)Cn3ncc4c(=O)oc5ccccc5c43)CC2)c1	inactive: -13.3%	–
O=C1CC(c2cccc(F)c2)c2c(n3ncnc3[nH]c2=O)N1 (stereo not given)	inactive: -2.3%	–
COc1ccc(-n2nc(C(=O)N3CCN(c4cccc(C(F)(F)F)c4)CC3)c3c4ccccc4n(C)c3c2=O)cc1Cl	inactive: 0.381%	–
CCOc1ccc(CCNC(=O)Cc2ccc(NC(=O)N3CCSc4ncccc43)cc2)cc1	inactive: 0%	–
Cc1cccc(-c2noc(-c3cc(-c4ccc(F)cc4)n[nH]3)n2)c1	inactive: -1.49%	–
COc1cccc(N2CCN(C(=O)Cn3ncc4c5ccccc5n(C)c4c3=O)CC2)c1	inactive: -2.78%	–
Cc1oc2ncn(C)c(=O)c2c1C(=O)NCc1ccccc1	inactive: 2.31%	–
COc1cc(OC)cc(C(=O)Nc2nc(-c3nnn(-c4ccc(F)c(Cl)c4)c3C)ns2)c1	inactive: -12.7%	–
O=C(CSc1nc(-c2ccco2)nc2cc(=O)[nH]n12)Nc1ccccc1F	inactive: 6.19%	–
COc1ccc2cc3cc(C(=O)Nc4ccccc4C)oc3nc2c1	inactive: 1.64%	–
COc1ccc(NC(=O)CSc2nc(C)cc(C)c2C(=O)Nc2cccc(C)c2)cc1	inactive: 2.53%	–
COc1cccc(C(=O)Nc2ccccc2-c2nnc(-c3ccc(C(C)(C)C)cc3)o2)c1	inactive: 0.357%	–
Cc1ccc(NC(=O)Nc2ccc3nc(N4CCN(C)CC4)cc(C)c3c2)cc1C	inactive: 2.68%	–
C[C@@H](NC(=O)CN(c1ccccc1)S(=O)(=O)N(C)C)c1ccccc1	inactive: -5.14%	–
CCCOC(=O)c1ccc(Nc2nc3ccccc3nc2-n2nc(C)cc2C)cc1	inactive: 0.86%	–
CCN1CCN(C(=O)c2ccc3c(c2)N(Cc2ccccc2F)C(=O)c2ccccc2S3(=O)=O)CC1	inactive: 0.0935%	–
Cc1ccccc1NC(=O)c1ccc(F)c(S(=O)(=O)NC2CCCC2)c1	inactive: 6.52%	–
Cc1ccc(N2CCN(C(=O)c3c(C)oc4nc(C)nc(N5CCCC5)c34)CC2)c(C)c1	inactive: 3.42%	–
COc1cc(NS(=O)(=O)c2ccc(NC(=O)c3ccc(C(C)=O)cc3)cc2)nc(OC)n1	inactive: -2.2%	–
CCOC(=O)c1cccc(NC(=O)N2CC(CC)Oc3ccccc32)c1 (stereo not given)	inactive: 10.5%	–
Cc1cccc(-n2ncc(C(=O)NCc3ccco3)c2C2CCN(C(=O)OC(C)(C)C)CC2)c1	inactive: 6.54%	–
Cc1nc2cccnc2n1C1CCN(S(=O)(=O)c2ccc(C(C)C)cc2)CC1	inactive: -23.3%	–
O=C(CSc1ncc2c(n1)-c1ccccc1N(Cc1ccc(F)cc1)S2(=O)=O)NCc1ccccc1	inactive: 12%	–
Cc1cccc(CNC(=O)CCCN2C(=O)COc3ccc(C)cc32)c1	inactive: -5.39%	–

Compound	activity change, negative = inhibition	Potency
CCn1c(=O)c2cc(C(=O)N(C)c3cc(Cl)c(OC)cc3OC)sc2c2ccccc21	inactive: -10.5%	–
O=C(Nc1ccc(Br)cc1)c1ccc(Br)c(S(=O)(=O)N2CCCCC2)c1	inactive: -5.16%	–
Cc1cn2c(=O)cc(COC(=O)c3cccc(NC(=O)COc4ccc(Cl)cc4)c3)nc2s1	inactive: 0%	–
COC(=O)c1c(NC(=O)COc2ccccc2Cl)sc2c1CCC(C(C)(C)C)C2 (stereo not given)	inactive: 5.44%	–
Cc1ccc(CCNC(=O)c2cc3sccc3n2Cc2ccc(F)cc2)cc1	inactive: -1.97%	–
Cc1ccc(C(=O)c2cn(Cc3ccccc3F)c3cc4c(cc3c2=O)OCO4)cc1	inactive: 0.611%	–
COC(=O)c1ccc(Cl)cc1NC(=O)N1CCC(CN2CCCC2)CC1	inactive: -1.66%	–
N#C/C(=C\c1ccc(Br)cc1)c1nc(-c2cc3cc(Br)ccc3oc2=O)cs1	inactive: -0.387%	–
COc1cc(/C=C(\C#N)c2nc3ccc(C)cc3[nH]2)ccc1OC(C)C	inactive: -4.15%	–
CCc1ccc(S(=O)(=O)c2c[nH]c3cc(OC)c(OC)cc3c2=O)cc1	inactive: -15.8%	–
COc1ccc2cc3cc(C(=O)NCCc4ccccc4)sc3nc2c1Cl	inactive: -1.24%	–
CCc1ccccc1N(C)S(=O)(=O)c1ccc2[nH]cc(C(=O)NCCOC)c(=O)c2c1	inactive: 0.26%	–
COc1cccc(NC(=O)C(=O)NCC(c2ccc3c(c2)OCO3)N2CCOCC2)c1 (stereo not given)	inactive: -0.31%	–
O=C(Cn1c(=O)n(-c2ccc(Cl)cc2)c(=O)c2sc3ccccc3c21)NC1CCCCC1	inactive: -4.09%	–
COc1cc(OC)c(NC(=O)CCn2cccn2)cc1Cl	inactive: -9.09%	–
CN(Cc1ccccc1)C(C(=O)NC1CCCCC1)c1ccc(Cl)cc1 (stereo not given)	inactive: 3.9%	–
Fc1ccc(C(Nc2ccc(Cl)c(C(F)(F)F)c2)c2nnc(-c3ccccc3)o2)cc1 (stereo not given)	inactive: 3.61%	–
CCN(CCCNC(=O)CSc1cc(=O)n(C)c2cc(Cl)ccc12)c1cccc(C)c1	inactive: 1.81%	–
Cc1c2cnn(-c3ccccc3)c(=O)c2c(C)n1CC(=O)N1CCN(c2ccc(F)cc2)CC1	inactive: -5.25%	–
COc1cc(-c2noc(-c3ccc(N4CCOCC4)c([N+](=O)[O-])c3)n2)cc(OC)c1OC	inactive: -0.562%	–
Cc1ccc(NC(=O)CSc2nc3ccccc3c3nc(CCn4cncc4C)nn23)c(C)c1	inactive: 2.07%	–
COc1cccc(-c2nc(CS(=O)(=O)CC(=O)Nc3cc(F)ccc3F)c(C)o2)c1	inactive: -0.0999%	–
Cc1ccc(OCC(=O)N(Cc2ccco2)Cc2ccco2)cc1	inactive: 2.78%	–
CCS(=O)(=O)c1nc2ccccc2n1CC(=O)Nc1ccccc1C(=O)OC	inactive: -8.06%	–

Compound	activity change, negative = inhibition	Potency
CCc1ccc(C(=O)c2c(N)c(-c3nc(-c4ccc5c(c4)OCO5)cs3)c3ccccn23)cc1	inactive: -11.7%	–
Oc1c(C(c2ccc(Br)cc2)N2CCOCC2)sc2nc(-c3ccco3)nn12 (stereo not given)	inactive: -2.23%	–
COc1ccc2nc3sc(C(=O)N4CCN(c5ccccc5)CC4)cc3cc2c1	inactive: 6.32%	–
COc1ccc(CCNC(=O)CCn2c(=O)c3ccccc3n(Cc3c(C)cc(C)cc3C)c2=O)cc1OC	inactive: -8.53%	–
N#Cc1ccccc1S(=O)(=O)N1CCCC(c2nc3c(nnn3Cc3cccc(Cl)c3)c(=O)[nH]2)C1 (stereo not given)	inactive: 2.35%	–
CC(C)CCNC(=O)CN1C(=O)c2cccnc2Oc2ccccc21	inactive: 0.768%	–
CN(C)c1ccc(C(CNC(=O)c2ccccc2F)N2CCc3ccccc32)cc1 (stereo not given)	inactive: 0%	–
Cc1csc2nc(CCNS(=O)(=O)c3ccccc3)cn12	inactive: -0.758%	–
O=C(NCc1ccco1)c1c[nH]c2ccc(S(=O)(=O)Nc3ccc(F)cc3F)cc2c1=O	inactive: -1.28%	–
Cc1nn(-c2ccccc2)c2c1N(CCCC(=O)NCc1ccc(Cl)cc1)C(=O)CS2	inactive: -7.73%	–
CN1CCN(C(=O)c2cnn(-c3cccc(Cl)c3)c2C2CCN(C(=O)OC(C)(C)C)CC2)CC1	inactive: 7.37%	–
COc1cccc(CNC(=O)c2ccc3c(c2)N(Cc2ccc(C(F)(F)F)cc2)C(=O)c2ccccc2S3)c1OC	inactive: -4.35%	–
COc1ccc(-c2nnc(SCC(=O)NCc3ccccc3)nc2-c2ccc(OC)c(OC)c2)cc1OC	inactive: -12.1%	–
Cc1ccc(CN(Cc2ccco2)C(=O)COc2ccc(Cl)cc2Cl)cc1	inactive: -9.74%	–
CCOc1ccccc1CNC(=O)CN(c1ccc(C)cc1)S(=O)(=O)N(C)C	inactive: -9.55%	–
CCOc1ccc(NC(=O)Cc2ccc(NC(=O)N3CCCCc4ccccc43)cc2)cc1	inactive: -3.72%	–
CC(C)(C)c1ccc(S(=O)(=O)c2cnc(SCC(=O)Nc3ccc(F)c(Cl)c3)[nH]c2=O)cc1	inactive: -2.43%	–
CCOC(=O)c1cc(-c2ccc(F)cc2)n(CC(=O)NCc2ccc(OC)cc2)c1C	inactive: 0.485%	–
COC(=O)c1ccc([C@H]2Nc3ccc(S(=O)(=O)Nc4ccc(C)cc4)cc3[C@H]3C=CC[C@H]32)cc1	inactive: 1.4%	–
Brc1ccc(-c2nnc3sc(CN4CCCCC4)cn23)cc1	inactive: -19.6%	–
Cc1ccccc1-c1nnc(CN2CCN(c3cccc(C)c3C)CC2)o1	inactive: -6.33%	–
COc1cccc(NC(=O)CSc2nc3c([nH]c4ccccc43)c(=O)n2-c2ccccc2)c1	inactive: -7.13%	–
Cc1ccc(NC(=O)CSc2nnc(C)n3c2cc2sccc23)c(C)c1	inactive: 3.41%	–
